Data as given in PubChem BioAssay (NCATS).
Inconclusive means that the source gave no clear call. Such entries were picked first, then a sample of the others. No potency is given beside an inconclusive call; the fits are too rough. Calls of active or inactive are those of the source. The call rests on the fitted dose curve; in most records, active means well fitted curve in the direction sought with a large enough effect; inconclusive means small, poorly fitted or top-dose-only effect, or another doubt; inactive means no such curve, though single readings can be large; an effect the other way counts as inactive or inconclusive.

Target: N-terminal Xaa-Pro-Lys N-methyltransferase 1 (Homo sapiens) (UniProt Q9BV86)
Sequence of UniProt Q9BV86 (Q9BV86 whole entry, looked up): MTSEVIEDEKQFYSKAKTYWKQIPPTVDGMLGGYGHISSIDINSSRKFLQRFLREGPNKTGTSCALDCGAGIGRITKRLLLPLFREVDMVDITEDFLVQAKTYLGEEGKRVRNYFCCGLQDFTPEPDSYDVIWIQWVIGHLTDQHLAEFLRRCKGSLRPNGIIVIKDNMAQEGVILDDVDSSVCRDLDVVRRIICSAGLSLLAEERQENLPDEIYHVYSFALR
Assay: Confirmatory qHTS for Inhibitors of N-terminal methyltransferase 1 (NTMT1): MTaseGlo Assay (AID 1645874); further: nearly all actives have a fitted effect of over 65% in size;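 on activity change, negative = inhibition: luminescence from SAH made as NTMT1 methylates SPKRIA peptide using SAM; 0% = DMSO control and -100% = no-enzyme control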
Conditions: NTMT1 enzyme, MTase-Glo SAH luminescence; series mostly up to 100 µM; activity change, negative = inhibition: at the top concentration
In short: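 Room-temperature NTMT1 reaction, 30 min, with 100 uM SAM and 1 uM SPKRIA substrate; enzyme 125 nM. Read-out: MTase-Glo luminescence, normalized to no-enzyme and DMSO controls.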
Potency means the concentration at half of the fitted maximal effect; tags describe the fitted curve by direction and shape.

Compound	Potency	activity change, negative = inhibition
Cc1cc(F)ccc1S(=O)(=O)Nc1cnccc1C(=O)Nc1nc(-c2ccccc2)cs1	active: 21.8 µM	–
COCCCNC(=O)CSc1c2c(nc3ccc(Cl)cc13)CCCC2	–	inactive: -17%
CCN1CCCN(c2nc(NC3CCN(C(C)C)CC3)c3cc(OC)c(OCCCN4CCCC4)cc3n2)CC1	inconclusive [inhibitor, partial curve]	–
Cc1c(-c2cnccn2)ssc1=S	inconclusive [inhibitor, partial curve]	–
CCOC(=O)N1CCN(C(=O)Cn2sc3nc(C)cc(C)c3c2=O)CC1	inconclusive [inhibitor, partial curve]	–
C[N+]1(C)CCC(OC(=O)C(c2ccccc2)c2ccccc2)CC1	inconclusive [inhibitor, partial curve]	–
COc1cc2c(cc1OC)C(c1cccc(Cl)c1)CC(=O)N2 (stereo not drawn)	inconclusive [inhibitor, partial curve]	–
COc1ccc(C2CC(=O)N3CN(C4CCCCC4)CSC3=C2C#N)cc1 (stereo not drawn)	inconclusive [inhibitor, partial curve]	–
O=C(/C=C/c1ccc(/C=C/C(=O)Nc2ccc(C3=NCCN3)cc2)cc1)Nc1ccc(C2=NCCN2)cc1	inconclusive [inhibitor, partial curve]	–
O=C(O)c1ccc(-c2noc(-c3cccc(Cl)c3)n2)cc1	inconclusive [inhibitor, partial curve]	–
Cc1ccnc(NC(=S)N2CCNCC2)c1	inconclusive [inhibitor, single point]	–
COC(=O)c1ccc(NC(=O)CSc2nc3ccc(OC)cc3[nH]2)cc1	–	inactive: 28.1% [at 51.5 µM]

Test system: not listed separately
Assay: Primary qHTS for inhibitors of nuclear receptor binding SET domain protein 2 (NSD2) in an isogenic RCH-ACV NSD2 p.E1099K mutant (9B) (AID 1645876); further: nearly all actives have a fitted effect of over 70% in size; on activity change, negative = viability loss: on the % scale 0 is the no-effect control and ±100 the full control effect
Conditions: RCH-ACV (leukaemia line) NSD2 E1099K (9B) viability, CellTiter-Glo, 72 h; series mostly up to 44.9 µM; activity change, negative = viability loss: at the top concentration

Compound	Potency	activity change, negative = viability loss
C=C1C[C@@H]2CC[C@@]34C[C@H]5O[C@H]6[C@@H](O3)[C@H]3O[C@H](CC[C@@H]3O[C@H]6[C@H]5O4)CC(=O)C[C@@H]3[C@@H](OC)[C@@H](C[C@H](O)CN)O[C@H]3C[C@H]3O[C@@H](CC[C@@H]1O2)C[C@@H](C)C3=C	active: 0.0014 µM	–
O=C1CCc2cc(S(=O)(=O)Nc3ccc(F)c(Cl)c3)c(F)cc2N1	–	inactive: -9.59%
CCN(CC)CCNc1ccc2ncn3c4ccc(O)cc4c(=O)c1c23	active: 0.0651 µM	–
C[C@H]1O[C@H](O[C@H]2[C@H](O)[C@@H](O)[C@@H](O[C@H]3[C@H](O)[C@@H](O)C(O)O[C@@H]3CO)O[C@@H]2CO)[C@H](O)[C@@H](O)[C@@H]1N[C@H]1C=C(CO)[C@@H](O)[C@H](O)[C@H]1O (stereo partly drawn)	–	inactive: 1.69%
Nc1ncc(C(=O)NC2CN(C(=O)C3CC3)C2)c2ccc(-c3cccc(F)c3)nc12	inconclusive [inhibitor, partial curve, poor fit]	–
CN(C)CCN1C(=O)c2cccc3cc(NC(N)=O)cc(c23)C1=O	active: 2.35 µM	–
Cn1ncc(NC(=O)c2nc(-c3c(F)cccc3F)sc2N)c1N1CC[C@@H](N)[C@H](F)CC1	–	inactive: -92.3%
CC(C)Oc1ccc(-c2nn([C@@H](C)c3oc4ccc(F)cc4c(=O)c3-c3cccc(F)c3)c3ncnc(N)c23)cc1F	inconclusive [inhibitor, full curve]	–
c1ccc(CNCc2ccc(CN3CCCNCCNCCCNCC3)cc2)nc1	–	inactive: -11.9%
COc1ccc(-c2oc3c(CC=C(C)C)c(OC4O[C@H](CO)[C@@H](O)[C@H](O)[C@H]4O)cc(O)c3c(=O)c2OC2O[C@@H](C)[C@H](O)[C@@H](O)[C@H]2O)cc1 (stereo partly drawn)	–	inactive: 7.79%
CC1(C)SCCN(S(=O)(=O)c2ccc(OCC#CCO)cc2)[C@H]1C(=O)NO	inconclusive [inhibitor, partial curve]	–
C=CCN1C[C@H](C(=O)N(CCCN(C)C)C(=O)NCC)CC2c3cccc4[nH]cc(c34)C[C@H]21 (stereo partly drawn)	–	inactive: 1.02%
COCCNc1cc(NC(=O)N2CCCc3cc(CN4CCN(C)CC4=O)c(C=O)nc32)ncc1C#N	–	inactive: 3.8% [at 9.23 µM]
O=C1CCCC2=C1C(c1ccncc1Br)N=C(Nc1nc3ccccc3o1)N2 (stereo not drawn)	inconclusive [inhibitor, single point]	–
O=C(NO)c1cnc(NC2(c3cccc(F)c3)CCCCC2)nc1	active: 14.8 µM	–
CS(=O)(=O)c1ccc([C@@H](CC2CCCC2)C(=O)Nc2nccs2)cc1	inconclusive [inhibitor, partial curve]	–
